{"source": "paper PMC12136788", "binders": {"B1": {"name": "chr2:216981417:216981418:+_ENSG00000079246_ENST00000392132|hu_hu|hu_hu_hu_mus_True|48_108 (ssRNA)", "RNA": "GGGAGUUCUACAGUCCGACGAUCCUGAUACUGAUCCUUGCCAGCAAGGGCAUUAUCAGUGCCAUCUGUGCCAUAGAGGACUAACGCAAUCUCAUCCUUGCUCUCCGAAAAUACCUGUCGUUGGACAAACAUAGUCAUCACUUUCAACAGAGGAUUGAGCAUCA"}, "B2": {"name": "chr4:148551591:148551592:-_ENSMUSG00000063077_ENSMUST00000060537|mus_hu|mus_mus_mus_hu_False|18_68 (ssRNA)", "RNA": "GGGAGUUCUACAGUCCGACGAUCACCUGACAAAAUUAAAUAUCCCUGUAAAUUAGACAAUAAGCAGCAGGUAACAAAGUCUUUGCUUUGGAAUAUGUGCCAGGAAAAGUCAUCUUGUAGACCCCAAUCAAGAGACAGUUCACACAACAGAGGAUUGAGCAUCA"}, "B3": {"name": "95621333_95621453_120_5pUTR_ENSMUSG00000064210_ENSMUST00000071874|mouse|control|control (ssRNA)", "RNA": "GGGAGUUCUACAGUCCGACGAUCCUCCAUGUUCAGCAGGACCUUCCUAGUCAUCAUCUGCAUGUCUCCCGGAGACCGUCACUCGGCUGCUCUCGGCUCCGCUCGGCUCCGCUCGGCUCGGGCCGCAAGCUCCGCUCUGCCCUCCAACAGAGGAUUGAGCAUCA"}, "B4": {"name": "chr2:232320318:232320319:-_ENSG00000115053_ENST00000322723|hu_hu|hu_hu_hu_mus_True|18_48 (ssRNA)", "RNA": "GGGAGUUCUACAGUCCGACGAUCACUAUUAAAGUCUACAAAACCAAACCCUUUGGAAGAACCAGUUUCCCGAUCAGUGACUAUUCUUGCCCGAACGGAGCCCUCAAAUGAUUCUUUUAAUGUCUCUUCAGUGGUAUCCUCAGACAACAGAGGAUUGAGCAUCA"}, "B5": {"name": "28770882_28772721_2572_CDS_ENSG00000108582_ENST00000225719|human|control|control (ssRNA)", "RNA": "GGGAGUUCUACAGUCCGACGAUCAACUGGAUUAUACCCUCGAGCAGAUGCUGUGAUUUUAUAAGUUCCUGGAACCAAGAGACGCCAGUAAUCUCCAGUUUUGUAAGUAGUCACUGGGUGAUUAAUCUCAGCAACACUAAUGGUCAACAGAGGAUUGAGCAUCA"}, "B6": {"name": "chr17:13115065:13115066:+_ENSMUSG00000068039_ENSMUST00000151287|mus_mus|motif|central (ssRNA)", "RNA": "GGGAGUUCUACAGUCCGACGAUCGAUACUUGCUCCAGAAGCUUUUGCAACAUGCUUCAGGUCUCGUUUUAAAACUCUCCGGACAGCCAUGGCACCAGCUUCCACAAAAUACUUGAGAUACAUAUCAUCAAUGCCACCAGUGGUCAACAGAGGAUUGAGCAUCA"}, "B7": {"name": "chr1:88248876:88248877:-_ENSMUSG00000026234_ENSMUST00000027438|perfect_dup|FALSE|FALSE (ssRNA)", "RNA": "GGGAGUUCUACAGUCCGACGAUCUUCCCUUUUAUUACAGGAAUUUAAAGCUUCUUUAGCGUCUUCGAAUGAAGCAAACUCUAUAAAUGCAUACCCUUUAGAUUUGCCAUUUUGGUUCUGGGGUACUUUGAUAAAAGUUGCUUUCAACAGAGGAUUGAGCAUCA"}, "B8": {"name": "chr1:89340274:89340275:+_ENSMUSG00000048000_ENSMUST00000174671|mus_mus|motif|central (ssRNA)", "RNA": "GGGAGUUCUACAGUCCGACGAUCUUGGCACGGCGUUCAAGGAACUGCUUGGCAAACUCCUUGGCCUCGGAAGUAUCUCCGGAAUAGGCCCUGGUAUAGUCAUGGACUUCAUAAGGAGACUCCACUUCUUUCAAGAAAGAAACACAACAGAGGAUUGAGCAUCA"}, "B9": {"name": "chr2:47387770:47387771:-_ENSG00000143933_ENST00000272298|hu_mus|hu_hu_hu_mus_True|38_38 (ssRNA)", "RNA": "GGGAGUUCUACAGUCCGACGAUCAAGGUUUAAGGACAAUGACAGUAAGAUAAGGGAAGAAAACAUGGAGGAAUGAAGUCCUAAUUACUAUACAUGCAUAUUUUUUUACAGUAGGGGGGGGGAACCUUUUACAGAUAAGUUACACAACAGAGGAUUGAGCAUCA"}, "B10": {"name": "chr1:39494447:39494448:+_ENSG00000168653_ENST00000372967|hu_mus|hu_hu_hu_mus_False|1_88 (ssRNA)", "RNA": "GGGAGUUCUACAGUCCGACGAUCGCACCGAGCGGCGUUCUUAUAGGGCUGUUCACCGCUUAGGAACAUAAAGUGCCGGUCCAGGCUGAUGCCCAGCUUUUUCUGUAUGUCAAGGAAAGGCAUGGCUCUGCAGUGCCCCCUUGACAACAGAGGAUUGAGCAUCA"}, "B11": {"name": "chr4:17845017:17845018:+_ENSG00000109805_ENST00000514176|hu_mus|hu_hu_hu_mus_False|1_28 (ssRNA)", "RNA": "GGGAGUUCUACAGUCCGACGAUCGCUCUCUUAACUUGUAUCUUCAUUAAGGAACUCUGCAAGGUUAAGUUUACUUUUCUGUAGCGCAGCUGUUUUGGCUCGUCUGGUAGUCUCAUCCUUCAUUUCUGAUGGUGGUUUGGAACUCAACAGAGGAUUGAGCAUCA"}, "B12": {"name": "chr15:57523399:57523400:+_ENSG00000140262_ENST00000343827|hu_hu|FALSE|FALSE (ssRNA)", "RNA": "GGGAGUUCUACAGUCCGACGAUCAUCUUGCAUAAAGAAAGUGCUAGCGAACAUACUGGUUGGUGGCUUAGGAGAUGGAUAACUAGGAGAUUCACGGUUGAAAUCAUCUGAAUUUGGGGAUGGUGCAUAUACCGUUUUCCCAUUCAACAGAGGAUUGAGCAUCA"}, "B13": {"name": "chr8:125590379:125590380:+_ENSMUSG00000000738_ENSMUST00000108868|mus_mus|motif|central (ssRNA)", "RNA": "GGGAGUUCUACAGUCCGACGAUCUCUGACUGCAUUUGGAACUAUAUGCUGUUUCAGUAACAAUCCGCUAAUACCUUCAAAGCGGGGGGUCAGUAUUCGCAAUAGCAAACUCUGAGGCGCGUGGCCUCCAGCCGCAGCCGGGCCCAACAGAGGAUUGAGCAUCA"}, "B14": {"name": "chr13:104848895:104848896:-_ENSMUSG00000021710_ENSMUST00000109315|mus_hu|FALSE|FALSE (ssRNA)", "RNA": "GGGAGUUCUACAGUCCGACGAUCAGGGAAAUAGUGUGGAUAUUUUAAGGUAAUUUUAUACUUGUCAUCAUCUGUCUUUUCUAAACUGUCAAUGAAAUCAUCAGGAAGAGCACCAAGUUCAGCCUUGGAAAAUACAAGGAAGGUCAACAGAGGAUUGAGCAUCA"}, "B15": {"name": "chr8:28149726:28149727:+_ENSMUSG00000031483_ENSMUST00000033873|mus_hu|motif|central (ssRNA)", "RNA": "GGGAGUUCUACAGUCCGACGAUCCUCCAGCUAUCAACCCACGGCAAUCAAUCCAGCAGUAUCAUUUAUAGAAUGAUUACGGAAACAAGAAUCAUUUCUCAGUUACAAAUGGGGUCAUUAAGCCCUUGGGGCUCUUUGAAAGUACAACAGAGGAUUGAGCAUCA"}, "B16": {"name": "chr9:91949571:91949572:+_ENSG00000187742_ENST00000375807|hu_hu|FALSE|FALSE (ssRNA)", "RNA": "GGGAGUUCUACAGUCCGACGAUCAAUGUGUUUUUCUUUGUUGUAGGAAGGAUCCGAAGAUAAAGCUUCAGAAGAUGGUAUACUAACAUUUUUAGGAUCUGCUGAUGAAGCAAUGGUCUUUAAGUUUAUCAUAGAAGUAACAUUCAACAGAGGAUUGAGCAUCA"}, "B17": {"name": "chr17:45747064:45747065:+_ENSG00000108424_ENST00000290158|hu_hu|hu_hu_hu_mus_True|18_38 (ssRNA)", "RNA": "GGGAGUUCUACAGUCCGACGAUCGCCCACAGUCCACGCUGUUGUGUCUCGAACAACUACACUGGGGUCUUUCAUUAGUUCUAUUAGGGUGGGCAUAGCCUGUAUAACUAAUGGUUUGAGCUGACUGGGCUCUGGUCCUUCCAACAACAGAGGAUUGAGCAUCA"}, "B18": {"name": "chr2:128501614:128501615:-_ENSMUSG00000014355_ENSMUST00000014499|mus_hu|motif|central (ssRNA)", "RNA": "GGGAGUUCUACAGUCCGACGAUCAGUCACAGGGGAAUCUCCUUUGGAGAGGCUUCUGAGAUGUGCUGUGAGGGAGCUGCGGGUGGCCACAUUCUGUGGGGUUCCCCCCUGUUCAGAGAACUUUAAAACAACAUUCUCUUCCUCCAACAGAGGAUUGAGCAUCA"}, "B19": {"name": "chr12:52885226:52885227:-_ENSMUSG00000035247_ENSMUST00000042052|mus_mus|FALSE|FALSE (ssRNA)", "RNA": "GGGAGUUCUACAGUCCGACGAUCUUUGAAGACAUUUAUUCUUUCUACCAGUUGACUACAAUCUUGCUUCAUAUCCAAAUCUAUACUAUUGUUUAGAACAGUAAGAAGUGCCUGGACUAAACCACUACUACACAUUUCAUACGGCAACAGAGGAUUGAGCAUCA"}, "B20": {"name": "chr3:138289918:138289919:-_ENSG00000114107_ENST00000484888|hu_mus|motif|central (ssRNA)", "RNA": "GGGAGUUCUACAGUCCGACGAUCGUGUGCCGCUCGGUUCUGUUCUAGCUGAAGUUCACUUUUCAGUUGCUGGUUGGUCUCGGUGAGCUCCCGUAUCAUGCUCUGCUGACGUGUUGUUUCUUCCAUCAACGUUUUCAAAAUCUGCAACAGAGGAUUGAGCAUCA"}, "B21": {"name": "chr2:136607347:136607348:+_ENSMUSG00000027273_ENSMUST00000028727|mus_hu|FALSE|FALSE (ssRNA)", "RNA": "GGGAGUUCUACAGUCCGACGAUCAGAUAACAGCCAUGAGGAACCAAAGACGGCACAUUUUGAGAGAUUCAGAGCCUGACACUCAAAGGACCGUGGCAGUAACUCUGUGGAAUGUCACAGUUUUACAAGAACAAUACUGUGGAUCAACAGAGGAUUGAGCAUCA"}, "B22": {"name": "chr12:48362563:48362564:+_ENSG00000134291_ENST00000256686|hu_hu|hu_hu_hu_mus_False|28_108 (ssRNA)", "RNA": "GGGAGUUCUACAGUCCGACGAUCUCCGAAGGGUGAAUCGAUAGACCCUUGCGGGGGAAACUGUAAUCACUUUGUAUGGGGAAGGAAAAGAAACGCCAAAAACUUUCUUUCUUUCUUGGGUGGGGUGAGGCGGGAGGGGGAGGUCAACAGAGGAUUGAGCAUCA"}}, "note": "The list shows a part of the results.", "data": [{"biological_target": "T1, UNK ZnF1-3 (human, UniProt Q9C0B0 31-174)", "T1 sequence": "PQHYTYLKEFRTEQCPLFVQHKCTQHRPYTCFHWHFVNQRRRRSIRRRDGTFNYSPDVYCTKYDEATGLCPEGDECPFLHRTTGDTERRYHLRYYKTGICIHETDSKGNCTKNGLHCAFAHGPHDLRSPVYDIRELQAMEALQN", "assay": "nsRBNS (natural sequence RNA bind-n-seq); RBNS binding buffer (assumed for nsRBNS): 25 mM Tris pH 7.5, 150 mM KCl, 3 mM MgCl2, 0.01% Triton X-100, 500 ug/ml BSA, 20 U/ml SUPERase-In, 4 C; UNK is unkempt and MSI1 is Musashi-1; names of the RNAs are library labels; protein concentration not given here; high values mean tight binding", "units": {"binding signal": "enrichment R"}, "values": [{"binder": "B1", "binding signal": 0.662}, {"binder": "B2", "binding signal": 1.46}, {"binder": "B3", "binding signal": 0.9}, {"binder": "B4", "binding signal": 0.879}, {"binder": "B5", "binding signal": 0.787}, {"binder": "B6", "binding signal": 1.25}, {"binder": "B7", "binding signal": 0.792}, {"binder": "B8", "binding signal": 0.731}, {"binder": "B9", "binding signal": 1.95}, {"binder": "B10", "binding signal": 0.789}, {"binder": "B11", "binding signal": 0.386}, {"binder": "B12", "binding signal": 1.23}, {"binder": "B13", "binding signal": 0.737}, {"binder": "B14", "binding signal": 1.66}, {"binder": "B15", "binding signal": 1.54}, {"binder": "B16", "binding signal": 0.841}, {"binder": "B17", "binding signal": 0.59}, {"binder": "B18", "binding signal": 1.2}, {"binder": "B19", "binding signal": 0.803}, {"binder": "B20", "binding signal": 0.344}, {"binder": "B21", "binding signal": 1.67}, {"binder": "B22", "binding signal": 1.64}]}]}
